The values below come from publication PMC6212790.

This is one part of the list. At the low end of the ranking the order means little.

For this test, the target named is T1, GST-Rok (full length) (UniProt O34857).
T1 sequence: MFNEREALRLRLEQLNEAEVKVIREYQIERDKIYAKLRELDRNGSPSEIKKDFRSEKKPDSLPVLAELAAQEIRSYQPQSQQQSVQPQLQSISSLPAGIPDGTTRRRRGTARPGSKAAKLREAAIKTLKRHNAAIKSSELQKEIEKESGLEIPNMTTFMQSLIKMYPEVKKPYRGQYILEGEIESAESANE
Put plainly: protein binding microarray.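 Further: rank score from −0.5 (least bound) to 0.5 (best bound).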 As to conditions: Rok is a gene silencer of Bacillus subtilis; high values mean tight binding; most listed sequences are background and not binding sites; double strand, one strand shown.
Sequence CATTATAA displayed a binding signal of 0.228 E-score.
Next, ACGCCATA: -0.0445 E-score; GCAAGGTA: 0.109 E-score.
The sequence CGTTTGAA had a binding signal of -0.00324 E-score.
TATAGATA registered a binding signal of 0.384 E-score.
CCCGGTCG yielded a binding signal of -0.27 E-score.
Next, CGAAAGAC: -0.0668 E-score; ATGTAAAT: 0.376 E-score; AACAGGAC: 0.00391 E-score.
For CCGTGGAA the value was -0.0547 E-score; for AGACCAGA, -0.332 E-score; for ATGAACTG, 0.227 E-score.
As for AGAACGAA, the binding signal is 0.0711 E-score.
CCGGTTAA displayed a binding signal of 0.0273 E-score.
Sequence CGTTGTCC displayed a binding signal of -0.219 E-score.
For ATTTGGTC the value was 0.0568 E-score; for ATTATGGC, 0.185 E-score; for GATGAAAA, 0.0125 E-score.
Next, AGTCTGAC: -0.198 E-score.
Sequence GCTAATTA gave a binding signal of 0.325 E-score.
In the case of GATTCACC, the binding signal was -0.0308 E-score.
For GCCGCCAA, the binding signal is -0.274 E-score.
GCATTCCA came in with a binding signal of -0.149 E-score.
CCCGTACG came in with a binding signal of -0.101 E-score.
ATCGACAA had a binding signal of 0.105 E-score.
For GGCTCGAC the value was -0.23 E-score; for CTCCGAAG, -0.0917 E-score; for CAAACCTC, 0.0122 E-score.
Sequence ATTGCATC came in with a binding signal of 0.0126 E-score.
On to TCGTCGAA, for which the binding signal stood at 0.0751 E-score.
GACATAGA yielded a binding signal of 0.0806 E-score.
GGCGTGAA came in with a binding signal of -0.178 E-score.
For ACAGTAGC the value was 0.277 E-score; for CTTTCCGA, -0.113 E-score.
TGAGTGAA gave a binding signal of -0.101 E-score.
For GCTCAACC the value was -0.124 E-score.
The sequence ACTCCATG had a binding signal of 0.119 E-score.
Consider GAGGTTTA, for which the binding signal was -0.0436 E-score.
With ACTTCACT, the binding signal worked out at 0.0809 E-score.
The sequence CCGTGACA returned a binding signal of -0.0481 E-score.
For ACATCTTA the value was 0.223 E-score.
On to ATCCACAA, for which the binding signal was found to be 0.0415 E-score.
Next, CTAGGATA: 0.143 E-score.
Next, ACGAAAGA: -0.0692 E-score.
Consider AGAATCTC, for which the binding signal turned out to be 0.0678 E-score.
GATGAATC: the binding signal is -0.0413 E-score.
In turn, CACAACTA displayed a binding signal of 0.252 E-score.
For ATTCGTGG the value was 0.0627 E-score; for ATGTTTCG, 0.0709 E-score; for AACCAGAT, -0.0279 E-score.
On to GATGCGCA, for which the binding signal turned out to be 0.037 E-score.
Next, ATTAATAG: 0.324 E-score; AATTGTGC: -0.0138 E-score.
For ATGCGACA the value was -0.185 E-score; for CCTGACCA, -0.0664 E-score.
CATGCGGG gave a binding signal of -0.226 E-score.
For the sequence AAGCCAAG, the binding signal is -0.11 E-score.
For AAGATCCT the value was -0.0607 E-score.
Next, AGCCCAAC: -0.175 E-score.
Regarding GAACGCTC, the binding signal is -0.0522 E-score.
In turn, AATACCTA returned a binding signal of 0.267 E-score.
The sequence AGCTTTCC came in with a binding signal of -0.0941 E-score.
Consider GATTCGGA, for which the binding signal is 0.0972 E-score.
The sequence AGAATACC returned a binding signal of 0.00925 E-score.
Sequence GGGTTACC displayed a binding signal of -0.227 E-score.
Next, AGTATCAG: 0.0965 E-score.
CGGTTATC had a binding signal of -0.106 E-score.
Next, AACTTGGC: -0.0896 E-score; CCGACGAC: -0.16 E-score; TACCCACA: 0.11 E-score.
Consider CAACTCTA, for which the binding signal worked out at 0.0846 E-score.
For GAGCCAGA the value was -0.077 E-score.
Next, TACATCGA: 0.197 E-score.
On to TCTGCGCA, for which the binding signal came out at 0.179 E-score.
Next, AGTGGGGG: -0.223 E-score; CGGTGCAA: -0.115 E-score.
CAGCCCCG had a binding signal of -0.382 E-score.
With ACTTCAGC, the binding signal amounted to 0.113 E-score.
The sequence ATTACGTG yielded a binding signal of 0.212 E-score.
For ATACATTA the value was 0.318 E-score; for AGGTGTAG, 0.122 E-score.
Next, ACTGCGAG: -0.0549 E-score.
For the sequence CAATTGGC, the binding signal is -0.00632 E-score.
Regarding TCATTGCA, the binding signal was -0.0188 E-score.
The sequence ACCAACAC came in with a binding signal of -0.0308 E-score.
For CAGTACGA the value was -0.048 E-score; for AGACCGAC, -0.196 E-score.
In the case of TTACCCAA, the binding signal stood at 0.206 E-score.
Next, GAATGGAC: -0.0766 E-score.
Next, GAAGATTC: -0.0263 E-score.
Turning to CACCAAGC, the binding signal was -0.0277 E-score.
In the case of GATATAAA, the binding signal came to 0.33 E-score.
On to AACCGATG, for which the binding signal was -0.325 E-score.
Next, AGACATCT: 0.0606 E-score.
The sequence AGTCGCGC came in with a binding signal of 0.101 E-score.
Next, CTCCAGAG: -0.223 E-score; GCTTGCAA: -0.0949 E-score.
GAAAAAAA yielded a binding signal of -0.103 E-score.
For ACCTTTAG the value was -0.0735 E-score; for ATGTCAGG, -0.124 E-score; for AGAGAAAC, 0.0652 E-score.
For ATAGCGGA the value was 0.0662 E-score; for CTCGTGAA, -0.321 E-score.
In the case of ACTCTACT, the binding signal turned out to be 0.27 E-score.
Sequence CCACATCG displayed a binding signal of -0.158 E-score.
Consider ATTGTTCA, for which the binding signal was 0.126 E-score.
For AATGCAAG, the binding signal is -0.0482 E-score.
The sequence GTACCTCA gave a binding signal of 0.0935 E-score.
For CCCCTACG the value was -0.444 E-score.
For CCGTTCGC the value was -0.25 E-score; for TATCCCAA, 0.0744 E-score; for AGTAGCGC, 0.14 E-score.
ACATCGAC: the binding signal stood at 0.09 E-score.
The sequence ACCAGCGA showed a binding signal of 0.152 E-score.
Next, CGCGACCG: -0.319 E-score; TCTGCAAA: -0.0491 E-score; ACGGTGTA: 0.0142 E-score.
On to CATAAAGG, for which the binding signal is -0.148 E-score.
For CAACTCCG the value was -0.12 E-score.
In turn, GTAGTCGA returned a binding signal of 0.0617 E-score.
For CTAGATAA the value was 0.302 E-score; for AGTCGTTA, -0.0861 E-score.
Next, CGCTCCTC: -0.314 E-score; ACGACCAT: -0.0466 E-score.
For GATAGTGC the value was 0.0754 E-score; for AGGCGCCG, -0.361 E-score; for CCGGGGCG, -0.417 E-score.
AAATGCGA came in with a binding signal of 0.144 E-score.
Next, AATTAAAT: 0.236 E-score; TCGTAGCA: 0.0704 E-score; AAACAGTT: 0.177 E-score.
Next, CCTAAGCC: -0.248 E-score; GAAACAAC: 0.0741 E-score.
CATTAGTA: the binding signal turned out to be 0.227 E-score.
Regarding ATATCCGC, the binding signal was found to be 0.1 E-score.
Next, AAACGATT: 0.0613 E-score; AAACGGCG: 0.0231 E-score; CAAACCCG: -0.233 E-score.
On to CAGTCAGG, for which the binding signal is -0.231 E-score.
For ATTTGTTG the value was 0.1 E-score; for GCCTTGAC, -0.284 E-score.
Turning to GAGGAAGC, the binding signal is -0.0496 E-score.
On to GTCGGCCA, for which the binding signal was -0.225 E-score.
In turn, GGATAGTA registered a binding signal of 0.208 E-score.
For AGTGGTAA the value was 0.262 E-score; for CGGAAGAG, -0.0941 E-score; for ATGCGCCC, -0.248 E-score.
For ATTGGTGG, the binding signal was -0.0729 E-score.
Next, GCGCGCTA: 0.316 E-score; ACACACGA: 0.00147 E-score.
Turning to ACAGGGGG, the binding signal is -0.379 E-score.
For CGCCTGAG the value was -0.19 E-score; for AAAGACTG, -0.154 E-score; for AAGTTACA, 0.18 E-score.
Sequence ACGAGCGG registered a binding signal of -0.182 E-score.
Next, CCGAAGAA: 0.164 E-score.
Take AGATCGAA: the binding signal was found to be 0.107 E-score.
Next, TGGTAACA: 0.117 E-score; AAATAGAT: 0.263 E-score.
On to CCAGGAGG, for which the binding signal is -0.414 E-score.
Sequence CCCGCTCC came in with a binding signal of -0.219 E-score.
For AACCACAT the value was 0.0333 E-score; for CATATTCC, -0.0313 E-score; for CTCCCCAC, -0.41 E-score.
Regarding AAGGCAAA, the binding signal was -0.039 E-score.
For GCTCCAAC the value was -0.343 E-score; for ACTAATAG, 0.227 E-score; for ACACGCAA, -0.00319 E-score.
For AGAGGGGC, the binding signal was -0.381 E-score.
Sequence CACAGCCA yielded a binding signal of 0.0481 E-score.
CAGTCAAC showed a binding signal of -0.101 E-score.
Next, GCAGGGGC: -0.302 E-score; AAACTATA: 0.396 E-score.
ACTATACA: the binding signal was found to be 0.322 E-score.
Turning to ACAATATA, the binding signal came out at 0.298 E-score.
Next, AACAAGAT: 0.147 E-score; ACGGGGTA: -0.0246 E-score; ATGAGAAT: 0.201 E-score.
CCAAACCG had a binding signal of -0.121 E-score.
Next, CACGAGAC: -0.124 E-score.
For GGATGTTA the value was 0.0229 E-score; for CGCTGGAC, -0.23 E-score.
For AACCAATC the value was 0.226 E-score.
Turning to CGCAACAG, the binding signal is -0.148 E-score.
For GTATATAA the value was 0.278 E-score; for AGGTCAGA, -0.156 E-score.
For CAAGGGCC the value was -0.262 E-score.
CCCACGGC: the binding signal was -0.347 E-score.
For AAGGGTAG the value was -0.028 E-score; for ACGCACCG, -0.165 E-score; for CCTGCAGG, -0.221 E-score.
ATCTACGC registered a binding signal of 0.188 E-score.
On to AGGGAACA, for which the binding signal is -0.0509 E-score.
For CCGTCTCG the value was -0.25 E-score; for AACGCTTG, -0.102 E-score.
Consider ACTTAGCA, for which the binding signal was 0.104 E-score.
The sequence ACTCAACC displayed a binding signal of 0.0616 E-score.
Consider CGCTCAAC, for which the binding signal was -0.00321 E-score.
The sequence GGACCTGA showed a binding signal of -0.143 E-score.
For GGGGATAA the value was -0.114 E-score.
The sequence CGCTGTTC came in with a binding signal of -0.0912 E-score.
Consider CCGACTGC, for which the binding signal is -0.251 E-score.
Next, CAAATTTG: 0.127 E-score; GGCGCGAA: -0.18 E-score; CCCCGCCA: -0.429 E-score.
Next, ACCAATAA: 0.299 E-score.
Sequence ACCATAGC yielded a binding signal of -0.089 E-score.
As to TCTCGTCA, the binding signal was -0.18 E-score.
For GGCTGTTA the value was -0.0839 E-score; for AAGATTAC, 0.0411 E-score; for AATCCGCA, -0.0293 E-score.
The sequence CGGCTAGC returned a binding signal of -0.192 E-score.
AAACACTC had a binding signal of 0.048 E-score.
For ACGAATCT the value was 0.189 E-score; for AAGAATAG, -0.082 E-score.
Sequence ACTGACCG had a binding signal of 0.106 E-score.
Next, AATTGACT: 0.16 E-score; GCCGTTAA: -0.0418 E-score; GCAGAGAA: -0.0153 E-score.
